This passage reports self-cleavage results from the RNAGym collection of RNA variant scans (doi:10.1093/nar/gkz1192).

Read counts are not given, so values of variants with three or more changes are uncertain.

B1: CPEB3 Ribozyme (parent)
chain: UAACAGGGGGCCACAGCAGAAGCGUUCACGUCGCAGCCCCUGUCAGAUUCUGGUGAAUCUGCGAAUUCUGCUGUAUAUCUC

The data set covers variants of B1. Put plainly: self-cleavage, relative activity (ratio to wild type); higher = more cleavage; in vitro, sequencing. An outline of the steps: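 After error-prone PCR and barcoding, CPEB3 ribozyme mutant libraries were transcribed with T7 RNA polymerase at 37°C for 5 hours, then given 15 min with DNase I before an EDTA stop, and they cleaved during both steps. Reverse transcription with template switching preceded Illumina sequencing. Relative activity divides a variant's cleaved/total read fraction by the unmutated ribozyme's. At least 5 reads were required per variant, and three batches were averaged.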
For the variant A18G A21G U51C A57U, the self-cleavage came to 0.14.
To A18G A20U U25A U67A U69C belongs 0.15; to A18G C38G U74C, 0.57; to A18G A28G U60C C62A, 0.07.
In the case of A18G A35U A47G U69C it was 0.5; in that of A18G A35C U51G A64U, 0.17; in that of A18G A21G U54G U66C G70C U76A, 0.08.
For the variant A18G C32U C62U U69C, the self-cleavage turned out to be 0.11.
In the case of A18G A28G U67A U72C it was 0.21.
Regarding A18G C29U U60C, the self-cleavage stood at 0.27.
As for A18G A21U U41A U69C, the self-cleavage stood at 0.42.
Turning to A18G A45G U51A A65U U72A A77U U78C, the self-cleavage was 0.28.
In the case of A18G A21G U58G A77G, the self-cleavage was determined as 0.37.
A18G A28U U54A A64U U78C: the self-cleavage was found to be 0.23.
A18G A45U A77G: the self-cleavage is 0.27.
In the case of A18G A47G U67C U72C, the self-cleavage amounted to 0.11.
For A18G G19A G61U, the self-cleavage was 0.14.
To A18G A45G U58A U69A U80C belongs 0.13.
For A18G C27U U31A C40U G61C, the self-cleavage is 0.08.
To A18G A28G U41G G63C U74C U80C belongs 0.48.
Take A18G A57G A77G: the self-cleavage was found to be 0.53.
Take A18G C27U U31A U43C G46A G61C C71A: the self-cleavage is 0.1.
Consider A18G A35G A45G U54C, for which the self-cleavage turned out to be 0.5.
Consider A18G A20U C23U A35G U41A U80C, for which the self-cleavage was determined as 0.02.
Take A18G A20U A47G U54A: the self-cleavage came to 0.18.
To A18G C40U U41C belongs 0.32.
As to A18G A47U U74C, the self-cleavage was determined as 0.12.
To A18G A45U U58C U69C belongs 0.11.
Turning to A18G A21U A28G A64G C79A, the self-cleavage amounted to 0.11.
As for A18G A45G A65G U67A A77G, the self-cleavage came to 0.25.
On to A18G C37A U51A A65G U67C U76A U78C, for which the self-cleavage was determined as 0.07.
A18G A21G A28G: the self-cleavage was 0.45.
Regarding A18G C34U U54C, the self-cleavage was determined as 0.12.
To A18G A21G U31C G33A A56U U72A A75G belongs 0.04; to A18G C27U A57G U74C A75U, 0.51.
To A18G A35U U51A A56U C62U belongs 0.12.
In the case of A18G A21G U54C U74C, the self-cleavage amounted to 0.14.
Regarding A18G A35G U51G C59A U67C U72C, the self-cleavage stood at 0.13.
As for A18G A57G U78C U80A, the self-cleavage came out at 0.84.
In the case of A18G A21G U26C U49A U51A G73C, the self-cleavage came out at 0.05.
For A18G A21G A75U, the self-cleavage amounted to 0.27.
Regarding A18G A21U A56G U78C, the self-cleavage came to 0.19.
For the variant A18G A45G U48C, the self-cleavage amounted to 0.23.
For A18G A45G A57G, the self-cleavage stood at 0.49.
To A18G C27A U60C belongs 0.17; to A18G C38U U66C, 0.17; to A18G A56G U58A, 0.21.
For A18G A28C G33A U48C A65U, the self-cleavage turned out to be 0.07.
As for A18G A35U A64G U67C, the self-cleavage was found to be 0.08.
With A18G A20U C39A U60C A65G U72C U78C, the self-cleavage is 0.02.
Consider A18G A28G A35U A45U U51A U60C U72A, for which the self-cleavage is 0.06.
Turning to A18G A47G U60A U72C, the self-cleavage turned out to be 0.2.
With A18G A56G U60C U74C, the self-cleavage is 0.24.
To A18G C37U U69C G73C U74C belongs 1.25; to A18G C37U C39A U49A A57G U69A U72C, 0.05.
A18G C23G A35U A57G A64G U80C: the self-cleavage was 0.03.
As to A18G C50U U54G A75G, the self-cleavage came out at 0.23.
Regarding A18G A35G U41C A45U A56G U72C U80C, the self-cleavage was determined as 0.26.
As to A18G G19A U76C, the self-cleavage came to 0.48.
Turning to A18G A35G G46U A57G U58A, the self-cleavage is 0.18.
As for A18G A47G A65G, the self-cleavage came to 0.28.
A18G A21G A35G: the self-cleavage stood at 0.75.
Turning to A18G C32A C34U U72A, the self-cleavage was 0.12.
In the case of A18G C44G A45G U74G U80C, the self-cleavage was determined as 0.11.
Turning to A18G A64U A65G U69C, the self-cleavage turned out to be 0.57.
To A18G A21G A35G C44U U72C belongs 0.07.
On to A18G A56G U72C, for which the self-cleavage is 0.58.
For A18G A65G U69C, the self-cleavage was 0.44.
Regarding A18G A20U A64U, the self-cleavage was determined as 0.21.
In the case of A18G C34A U54A it was 0.1.
In the case of A18G C37U U43A it was 0.69.
On to A18G A21G A47G, for which the self-cleavage was 0.36.
On to A18G A21U U26C U80C, for which the self-cleavage is 0.46.
Turning to A18G A28G U49A U58C, the self-cleavage worked out at 0.07.
Take A18G A47G A64G U69C: the self-cleavage was 0.95.
For the variant A18G C23A A56G U58A U74A U80C, the self-cleavage came out at 0.05.
Consider A18G C29U U49C A57U U72A, for which the self-cleavage is 0.16.
For the variant A18G A20U C23U U31C U43A A45G C71U, the self-cleavage amounted to 0.02.
For the variant A18G A21G U49C C68U, the self-cleavage was determined as 0.09.
As for A18G A57G U69G, the self-cleavage turned out to be 0.2.
In the case of A18G A57G U69C it was 1.05.
As for A18G A21G C27G A47U U67G, the self-cleavage was determined as 0.04.
As to A18G C34U U41C U49C U67G U76A, the self-cleavage was 0.06.
As to A18G C29U A47G, the self-cleavage came to 0.33.
